This note sets out measurements from the supplement of paper PMC6657886.

MIC of clinical N. gonorrhoeae isolates (2015-2017) by agar dilution on GC agar with 1% IsoVitaleX (ranges not stated); higher = less susceptible. No active / inactive call per row; the paper counts benzylpenicillin above 1 and ceftriaxone above 0.125 mg/L as resistant (EUCAST). The method is stated for benzylpenicillin and ceftriaxone and assumed for the other drugs. '<=' is inferred from pile-ups at the end values. Isolates are numbered anew.

Assay in all cases: Agar dilution on enriched GC agar; resistance determinants by microarray.
For orientation: In agar dilution, organisms are placed on agar that contains the substance at set levels.

Compound in test [1]: CC1(C)S[C@@H]2[C@H](NC(=O)Cc3ccccc3)C(=O)N2[C@H]1C(=O)O [benzylpenicillin]
Compound in test [2]: CC[C@H]1OC(=O)[C@H](C)[C@@H](O[C@H]2C[C@@](C)(OC)[C@@H](O)[C@H](C)O2)[C@H](C)[C@@H](O[C@@H]2O[C@H](C)C[C@H](N(C)C)[C@H]2O)[C@](C)(O)C[C@@H](C)CN(C)[C@H](C)[C@@H](O)[C@]1(C)O [azithromycin]
Compound in test [3]: CN(C)[C@@H]1C(O)=C(C(N)=O)C(=O)[C@@]2(O)C(O)=C3C(=O)c4c(O)cccc4[C@@](C)(O)[C@H]3C[C@@H]12 [tetracycline]
Compound in test [4]: CN[C@@H]1[C@H](O)[C@H](NC)[C@H]2O[C@@]3(O)C(=O)C[C@@H](C)O[C@H]3O[C@@H]2[C@H]1O [spectinomycin]
Compound in test [5]: CO/N=C(\C(=O)N[C@@H]1C(=O)N2C(C(=O)O)=C(CSc3nc(=O)c(O)nn3C)CS[C@H]12)c1csc(N)n1 [ceftriaxone]

As a reminder, the MIC is the smallest concentration in the dilution series that meets the test's criterion for growth inhibition.

On to “Neisseria gonorrhoeae isolate 196 (blaTEM plasmid: no, gyrA: wild type, mtrR promoter: wild type, parC: wild type, penA: ins345Asp, ponA: wild type, porB: wild type, rpsJ: wild type, tetM plasmid: no)”, for which the MIC is 0.06 mg/L in test [1]; 0.03 mg/L in test [2]; 0.25 mg/L in test [3]; 32 mg/L in test [4]; no more than 2 ng/mL in test [5].
In the case of “Neisseria gonorrhoeae isolate 3 (blaTEM plasmid: no, gyrA: Thr91, Gly95, mtrR promoter: wild type, parC: wild type, penA: ins345Asp, ponA: wild type, porB: wild type, rpsJ: wild type, tetM plasmid: no)”, the MIC is 0.12 mg/L in test [1]; 0.015 mg/L in test [2]; 0.12 mg/L in test [3]; 32 mg/L in test [4]; no more than 2 ng/mL in test [5].
As to “Neisseria gonorrhoeae isolate 76 (blaTEM plasmid: no, gyrA: Phe91, Asn95, mtrR promoter: -35delA, parC: Arg87, Glu91, penA: ins345Asp, ponA: Pro421, porB: Thr 120, Asn 121, rpsJ: Met57, tetM plasmid: no)”, the MIC in test [1] was found to be 1 mg/L; in test [2], 0.25 mg/L; in test [3] it was 1 mg/L; in test [4] it was 16 mg/L; in test [5], 30 ng/mL.
Turning to “Neisseria gonorrhoeae isolate 334 (blaTEM plasmid: no, gyrA: wild type, mtrR promoter: wild type, parC: wild type, penA: ins345Asp, ponA: Pro421, porB: wild type, rpsJ: wild type, tetM plasmid: no)”, the MIC turned out to be 0.06 mg/L in test [1]; 0.03 mg/L in test [2]; 0.25 mg/L in test [3]; 8 mg/L in test [4]; 8 ng/mL in test [5].
With “Neisseria gonorrhoeae isolate 138 (blaTEM plasmid: yes, gyrA: Thr91, Gly95, mtrR promoter: wild type, parC: wild type, penA: ins345Asp, ponA: wild type, porB: wild type, rpsJ: Met57, tetM plasmid: yes)”, the MIC in test [1] is no less than 32 mg/L; in test [2] it was 0.06 mg/L; in test [3], 64 mg/L; in test [4] it was 16 mg/L; in test [5] it was 4 ng/mL.
With “Neisseria gonorrhoeae isolate 179 (blaTEM plasmid: no, gyrA: Thr91, Gly95, mtrR promoter: wild type, parC: wild type, penA: wild type, ponA: wild type, porB: wild type, rpsJ: wild type, tetM plasmid: no)”, the MIC in test [1] was 0.12 mg/L; in test [2], 0.06 mg/L; in test [3] it was 0.12 mg/L; in test [4], 32 mg/L; in test [5] it was no more than 2 ng/mL.
With “Neisseria gonorrhoeae isolate 496 (blaTEM plasmid: no, gyrA: wild type, mtrR promoter: wild type, parC: wild type, penA: ins345Asp, ponA: wild type, porB: wild type, rpsJ: wild type, tetM plasmid: no)”, the MIC in test [1] was 0.06 mg/L; in test [2], 0.12 mg/L; in test [3], 0.06 mg/L; in test [4], 16 mg/L; in test [5] it was no more than 2 ng/mL.
As to “Neisseria gonorrhoeae isolate 357 (blaTEM plasmid: no, gyrA: wild type, mtrR promoter: wild type, parC: wild type, penA: wild type, ponA: wild type, porB: wild type, rpsJ: wild type, tetM plasmid: no)”, the MIC in test [1] is no more than 0.015 mg/L; in test [2], 0.12 mg/L; in test [3] it was 0.25 mg/L; in test [4] it was 32 mg/L; in test [5], no more than 2 ng/mL.
Turning to “Neisseria gonorrhoeae isolate 59 (blaTEM plasmid: no, gyrA: Phe91, Asn95, mtrR promoter: -35delA, parC: Arg87, Glu91, penA: ins345Asp, ponA: Pro421, porB: wild type, rpsJ: Met57, tetM plasmid: no)”, the MIC was determined as 0.5 mg/L in test [1]; 0.25 mg/L in test [2]; 1 mg/L in test [3]; 32 mg/L in test [4]; 30 ng/mL in test [5].
For “Neisseria gonorrhoeae isolate 39 (blaTEM plasmid: no, gyrA: wild type, mtrR promoter: wild type, parC: wild type, penA: wild type, ponA: wild type, porB: wild type, rpsJ: wild type, tetM plasmid: no)”, the MIC in test [1] is no more than 0.015 mg/L; in test [2], 0.12 mg/L; in test [3] it was 0.5 mg/L; in test [4] it was 32 mg/L; in test [5], no more than 2 ng/mL.
In the case of “Neisseria gonorrhoeae isolate 158 (blaTEM plasmid: no, gyrA: wild type, mtrR promoter: wild type, parC: Arg87, Glu91, penA: ins345Asp, ponA: Pro421, porB: Asn120, Asp121, rpsJ: Met57, tetM plasmid: no)”, the MIC in test [1] was found to be 2 mg/L; in test [2], 0.5 mg/L; in test [3] it was 4 mg/L; in test [4], 32 mg/L; in test [5], 15 ng/mL.
For “Neisseria gonorrhoeae isolate 340 (blaTEM plasmid: no, gyrA: wild type, mtrR promoter: wild type, parC: wild type, penA: ins345Asp, ponA: Pro421, porB: wild type, rpsJ: Met57, tetM plasmid: no)”, in that order: 0.12 mg/L, 0.12 mg/L, 0.5 mg/L, 8 mg/L and 4 ng/mL.
As to “Neisseria gonorrhoeae isolate 230 (blaTEM plasmid: no, gyrA: Phe91, Ala 95, mtrR promoter: wild type, parC: Arg 87, Glu91, penA: ins345Asp, ponA: wild type, porB: Asp120, Gly121, rpsJ: Met57, tetM plasmid: yes)”, the MIC in test [1] was 0.06 mg/L; in test [2], 0.03 mg/L; in test [3], 4 mg/L; in test [4] it was 16 mg/L; in test [5] it was no more than 2 ng/mL.
Turning to “Neisseria gonorrhoeae isolate 350 (blaTEM plasmid: no, gyrA: Phe91, Asn95, mtrR promoter: -35delA, parC: Arg87, Glu91, penA: ins345Asp, ponA: Pro421, porB: Lys 120, Gly121, rpsJ: Met57, tetM plasmid: no)”, the MIC turned out to be 0.5 mg/L in test [1]; 0.25 mg/L in test [2]; 2 mg/L in test [3]; 16 mg/L in test [4]; 4 ng/mL in test [5].
As to “Neisseria gonorrhoeae isolate 27 (blaTEM plasmid: no, gyrA: wild type, mtrR promoter: wild type, parC: wild type, penA: ins345Asp, ponA: wild type, porB: Asp120, Ala121, rpsJ: wild type, tetM plasmid: no)”, the MIC in test [1] stood at 0.25 mg/L; in test [2] it was 0.008 mg/L; in test [3], 0.06 mg/L; in test [4], 32 mg/L; in test [5] it was 250 ng/mL.
For “Neisseria gonorrhoeae isolate 208 (blaTEM plasmid: no, gyrA: wild type, mtrR promoter: wild type, parC: wild type, penA: ins345Asp, ponA: wild type, porB: wild type, rpsJ: Met57, tetM plasmid: no)”, the MIC worked out at 0.12 mg/L in test [1]; 0.5 mg/L in test [2]; 1 mg/L in test [3]; 16 mg/L in test [4]; 4 ng/mL in test [5].
For the test system “Neisseria gonorrhoeae isolate 315 (blaTEM plasmid: no, gyrA: wild type, mtrR promoter: wild type, parC: wild type, penA: ins345Asp, ponA: wild type, porB: wild type, rpsJ: Met57, tetM plasmid: no)”, the MIC was 0.06 mg/L in test [1]; 0.06 mg/L in test [2]; 1 mg/L in test [3]; 16 mg/L in test [4]; no more than 2 ng/mL in test [5].
On to “Neisseria gonorrhoeae isolate 426 (blaTEM plasmid: no, gyrA: wild type, mtrR promoter: wild type, parC: wild type, penA: ins345Asp, ponA: wild type, porB: wild type, rpsJ: wild type, tetM plasmid: no)”, for which the MIC in test [1] was 0.06 mg/L; in test [2], 0.015 mg/L; in test [3], 0.5 mg/L; in test [4] it was 32 mg/L; in test [5], no more than 2 ng/mL.
Take “Neisseria gonorrhoeae isolate 24 (blaTEM plasmid: no, gyrA: wild type, mtrR promoter: wild type, parC: wild type, penA: wild type, ponA: wild type, porB: wild type, rpsJ: wild type, tetM plasmid: no)”: the minimum inhibitory concentration (MIC) in test [1] is 0.03 mg/L; in test [2], 0.12 mg/L; in test [3], 0.25 mg/L; in test [4] it was 32 mg/L; in test [5] it was no more than 2 ng/mL.
For “Neisseria gonorrhoeae isolate 492 (blaTEM plasmid: no, gyrA: wild type, mtrR promoter: -35delA, parC: Arg87, Glu91, penA: ins345Asp, ponA: Pro421, porB: Lys 120, Asn 121, rpsJ: wild type, tetM plasmid: no)”, in that order: 1 mg/L, 0.06 mg/L, 2 mg/L, 32 mg/L and 15 ng/mL.
Take “Neisseria gonorrhoeae isolate 436 (blaTEM plasmid: no, gyrA: Phe91, Asn95, mtrR promoter: -35delA, parC: Arg87, Glu91, penA: ins345Asp, ponA: Pro421, porB: Lys 120, Asn 121, rpsJ: Met57, tetM plasmid: no)”: the MIC worked out at 1 mg/L in test [1]; 0.25 mg/L in test [2]; 1 mg/L in test [3]; 16 mg/L in test [4]; 4 ng/mL in test [5].
On to “Neisseria gonorrhoeae isolate 288 (blaTEM plasmid: no, gyrA: Phe91, Gly95, mtrR promoter: -35delA, parC: Arg87, Gly91, penA: ins345Asp, ponA: Pro421, porB: Asp120, Ala121, rpsJ: Met57, tetM plasmid: no)”, for which the MIC in test [1] was found to be 0.5 mg/L; in test [2] it was 0.5 mg/L; in test [3] it was 0.5 mg/L; in test [4], 16 mg/L; in test [5], 15 ng/mL.
Regarding “Neisseria gonorrhoeae isolate 140 (blaTEM plasmid: no, gyrA: wild type, mtrR promoter: wild type, parC: wild type, penA: wild type, ponA: wild type, porB: wild type, rpsJ: wild type, tetM plasmid: no)”, the MIC was no more than 0.015 mg/L in test [1]; 0.12 mg/L in test [2]; 0.25 mg/L in test [3]; 16 mg/L in test [4]; no more than 2 ng/mL in test [5].
On to “Neisseria gonorrhoeae isolate 7 (blaTEM plasmid: no, gyrA: Phe91, Asn95, mtrR promoter: wild type, parC: Arg87, Glu91, penA: ins345Asp, ponA: Pro421, porB: wild type, rpsJ: Met57, tetM plasmid: no)”, for which the MIC in test [1] was 0.25 mg/L; in test [2], 0.25 mg/L; in test [3], 1 mg/L; in test [4], 16 mg/L; in test [5] it was no more than 2 ng/mL.
With “Neisseria gonorrhoeae isolate 191 (blaTEM plasmid: no, gyrA: wild type, mtrR promoter: wild type, parC: wild type, penA: ins345Asp, ponA: wild type, porB: wild type, rpsJ: wild type, tetM plasmid: no)”, the MIC in test [1] was no more than 0.015 mg/L; in test [2], 0.015 mg/L; in test [3], 0.06 mg/L; in test [4] it was 8 mg/L; in test [5], no more than 2 ng/mL.
